# The supplement of paper PMC3334620
# In all, about 33,000 sequences were measured (“E-score (-0.5 to 0.5)”: median about -0.012, highest 2% from about 0.27 on). The list shows a part of the results.
# Molecular target: T1, Vhr1 (UniProt P40522)
# T1 sequence: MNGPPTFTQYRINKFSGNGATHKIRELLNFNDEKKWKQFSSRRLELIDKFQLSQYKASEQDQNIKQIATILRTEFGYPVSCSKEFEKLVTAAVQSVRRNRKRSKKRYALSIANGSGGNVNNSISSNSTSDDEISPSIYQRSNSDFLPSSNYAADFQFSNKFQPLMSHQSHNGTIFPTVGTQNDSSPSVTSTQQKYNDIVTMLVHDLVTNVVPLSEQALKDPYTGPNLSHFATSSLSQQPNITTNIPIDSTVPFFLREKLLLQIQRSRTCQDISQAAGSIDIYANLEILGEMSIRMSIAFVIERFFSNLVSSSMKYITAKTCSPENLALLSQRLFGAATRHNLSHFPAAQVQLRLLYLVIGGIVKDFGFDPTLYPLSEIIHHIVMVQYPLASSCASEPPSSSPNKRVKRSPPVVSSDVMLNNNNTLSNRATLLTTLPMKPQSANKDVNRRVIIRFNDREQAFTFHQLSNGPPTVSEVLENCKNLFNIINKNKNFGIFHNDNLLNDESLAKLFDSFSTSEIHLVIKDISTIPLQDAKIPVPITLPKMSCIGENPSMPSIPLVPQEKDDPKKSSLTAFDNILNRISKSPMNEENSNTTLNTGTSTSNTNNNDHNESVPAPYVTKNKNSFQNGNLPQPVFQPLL
# Assay: PBM E-score (8-mer binding enrichment) (E-score (-0.5 to 0.5)); higher = stronger / more preferred TF binding; most listed sequences are background and not binding sites
# Conditions: protein concentration: 200 nM; construct: GST-full length
# Summary of the method: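 Each ungapped eight-base word and its reverse complement, pooled, received an E-score from the Universal PBM Analysis Suite. Underlying scans, normalised with masliner, recorded fluorescent anti-GST bound to GST-tagged yeast transcription factors. These were applied at about 100-200 nM to universal all-10-mer Agilent arrays double-stranded by primer extension.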
row,Sequence,PBM E-score
1,ATAGGACG,-0.136
2,AGCCACCT,-0.0568
3,GGCTACCA,-0.0282
4,ATGATTAG,0.317
5,GGATGGTA,0.137
6,GGACATTA,0.13
7,ACGTAACC,-0.129
8,CAATGATG,0.1
9,CCCGGTGA,0.0388
10,AGTCATCA,0.439
11,ATCGACTC,0.191
12,CGTCGCAG,0.0721
13,AGCCCAAC,-0.0844
14,ATCTTGAG,0.0114
15,CAGGGCGA,0.038
16,GGGACGAA,-0.14
17,GGAGATAC,0.0377
18,CGTGACAA,-0.0207
19,CTTCCCGA,0.113
20,AACGCATT,3e-05
21,ACTGACCG,-0.0765
22,CATCTTGA,0.0453

row,Sequence,PBM E-score
1,AATGCTGT,-0.279
2,AGGCTAAT,0.00758
3,CACGCTTA,-0.15
4,CATGTACC,-0.019
5,GCCTGCCA,-0.174
6,AGTGTGCC,-0.143
7,CGGGGGTA,-0.0254
8,CCCGAAAA,-0.0155
9,GCCGACAC,0.0401
10,GAGGATTA,-0.13
11,GAACTTGC,-0.173
12,CTTCGATA,-0.0278
13,ACCCGGAG,0.216
14,GCAGCACA,0.148
15,GGCAGTAA,0.125
16,CATAAGAC,-0.0681
17,ATGGGTAG,0.113
18,TGACCGAA,0.045
19,ACTGTAAA,-0.0312
20,AAACCAAA,-0.0827
21,CAGATCCA,-0.0204
22,CAGGTGAA,-0.0384

row,Sequence,PBM E-score
1,CCAGCGAA,-0.12
2,CCGTACTC,0.108
3,GGTCACCA,-0.102
4,CTATCGAG,0.167
5,CGTGGGGC,-0.212
6,AAGCTAAT,-0.0952
7,AGTTATCG,0.148
8,CTGTGTAC,0.113
9,ACCAACAT,0.157
10,GCCGCCTA,-0.144
11,GTCAACAA,-0.00888
12,AGCCAGCC,0.111
13,ACTGTCTG,0.0301
14,AAATAGTA,0.0683
15,CCAAAACC,-0.0417
16,CGTCGAAA,-0.143
17,GCTTCAAC,-0.206
18,CCCTCCGG,-0.118
19,GGCCGAAC,0.0207
20,GCATGTCA,0.121
21,CAACCGTG,0.00918
22,CCCACATC,-0.0619

row,Sequence,PBM E-score
1,ACGAGTAC,0.0901
2,AGAGGAGG,-0.211
3,ATACGCCA,0.0396
4,CACGCCCA,0.178
5,CGGCGGGA,-0.0278
6,AAGGAATA,-0.0657
7,CCAAAGAG,-0.0142
8,TCGTATAA,0.114
9,AAATAACC,-0.0908
10,AATTTTGG,-0.212
11,GAGGTGAA,-0.0638
12,GAGAGCAA,-0.0994
13,AGCTTTAA,-0.201
14,GAATCGTA,0.201
15,AGATTACA,0.153
16,GCTAAACC,-0.209
17,CCTCAGCC,-0.0698
18,GGTCAACC,0.0175
19,GAGCCGCC,0.0604
20,CTGTCCCA,-0.0909
